About 6,400 (1.6%) of roughly 410,000 compounds were called active. Inconclusive results, whose numbers are uncertain, are shown with a selection of clear calls. Calls come from the whole dose curve; as a rule, active = well fitted inhibition curve with a large enough effect; inconclusive = small, poorly fitted or top-dose-only effect; inactive = no such curve, though single readings can be large or run the other way. No potency is given beside an inconclusive call; the fits are too rough.
Biological target: Glucagon-like peptide 1 receptor (Homo sapiens) (UniProt P43220)
Assay: qHTS of GLP-1 Receptor Inverse Agonists (Inhibition Mode); note: nearly all actives have a fitted effect of over 55% in size
Settings: HEK293 GLP-1R CRE-luciferase, luminescence, 24 h, GLP-1R form is constitutively active; series mostly up to 38.3 µM
How it was run: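 Inverse agonists were sought by their lowering of basal cAMP reporter luciferase output in HEK293 cells stably carrying constitutively active human GLP-1R, after 24 h compound treatment.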
Potency is the fitted concentration of half-maximal effect; tags give direction and shape of the fitted curve.

Sequence of UniProt P43220 (P43220 whole entry, looked up): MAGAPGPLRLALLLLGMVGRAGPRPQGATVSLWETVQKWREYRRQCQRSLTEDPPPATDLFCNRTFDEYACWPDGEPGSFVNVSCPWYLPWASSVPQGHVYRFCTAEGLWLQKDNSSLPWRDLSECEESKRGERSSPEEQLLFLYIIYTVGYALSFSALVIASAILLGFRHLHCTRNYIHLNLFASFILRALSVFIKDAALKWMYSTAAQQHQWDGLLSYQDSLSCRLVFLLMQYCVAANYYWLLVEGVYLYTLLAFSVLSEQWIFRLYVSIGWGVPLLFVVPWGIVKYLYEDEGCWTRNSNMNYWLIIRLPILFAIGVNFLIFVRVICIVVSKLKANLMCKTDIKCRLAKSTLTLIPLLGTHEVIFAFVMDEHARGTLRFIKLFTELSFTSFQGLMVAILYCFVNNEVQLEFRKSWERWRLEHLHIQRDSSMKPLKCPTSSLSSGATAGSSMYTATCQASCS

**Q.** With `CCOC(=O)C(NC(C)=O)C(=O)Nc1ccc(C(C)C)cc1` (centres undefined) as the compound, how does the Potency read?
**A.** Its Potency is “inactive”.

**Q.** With `Cc1nc(N2CCOCC2)c2cc(-c3ccccc3)sc2n1` as the compound, how does the Potency read?
**A.** Its Potency is inconclusive [inhibitor, single point].

**Q.** How did the Potency turn out when `COc1cccc(CSc2nnnn2-c2ccc(O)cc2)c1` was run?
**A.** The Potency was inconclusive [inhibitor, single point].

**Q.** How did the Potency turn out when `OC(COCc1ccccc1)CN1CCc2ccccc2C1` (centres undefined) was run?
**A.** The Potency was “inactive”.

**Q.** For `COc1cccc(NC(=S)N(CCCN2CCOCC2)C(C)c2cc3ccccc3o2)c1` (centres undefined), which Potency is on record?
**A.** Its Potency is inconclusive [inhibitor, partial curve, poor fit].

**Q.** How did the Potency turn out when `CC(C)(C)c1ccc(C(=O)Nc2nnc3n2CCS3)cc1` was run?
**A.** Its Potency is inconclusive [inhibitor, partial curve, poor fit].

**Q.** How did the Potency turn out when `Cc1cc(C(=O)CSc2nc3ccccc3o2)c(C)n1CC1CCCO1` (centres undefined) was run?
**A.** The Potency was inconclusive [inhibitor, partial curve].

**Q.** `COc1cc(/C=N/NC(=S)NCc2ccccc2)ccc1OCC#N` was tested. Which Potency did it give?
**A.** Its Potency is inconclusive [inhibitor, single point].

**Q.** `COc1ccc(CNC(=O)c2ccc(S(=O)(=O)N3CC(C)CC(C)C3)cc2)cc1OC` (centres undefined) was tested. Which Potency did it give?
**A.** Its Potency is inconclusive [inhibitor, single point].

**Q.** Which Potency does the source give for `O=C(O)CNC(=S)N(Cc1ccccc1)Cc1ccccc1F` here?
**A.** Its Potency is “inactive”.

**Q.** How did the Potency turn out when `CSC[C@H]1CN(c2ccc(Br)cc2)C(=O)[C@@H]1CC(=O)Nc1ccc(Br)cc1` was run?
**A.** Its Potency is inconclusive [inhibitor, partial curve, poor fit].

**Q.** With `COc1ccc(C(=O)C2CCN(CC(=O)NCc3ccccc3)CC2)cc1` as the compound, how does the Potency read?
**A.** The Potency was “inactive”.

**Q.** Which Potency does the source give for `Cc1ccc(C(C(=O)NC(C)(C)C)N(Cc2cccs2)C(=O)c2csnn2)cc1` (centres undefined) here?
**A.** Its Potency is inconclusive [inhibitor, single point].

**Q.** With `COc1ccc(-c2csc(NC(=O)CS(=O)(=O)c3ccccc3)n2)cc1` as the compound, how does the Potency read?
**A.** Its Potency is inconclusive [inhibitor, single point].

**Q.** Which Potency does the source give for `COc1ccc(C2NC(c3ccc(OC)c(OC)c3OC)C(C)C(=O)C2C)c(OC)c1OC` (centres undefined) here?
**A.** Its Potency is “inactive”.

**Q.** For `Cc1ccc(C(C)C)cc1OCCCCN1CCCC1`, which Potency is on record?
**A.** The Potency was inconclusive [inhibitor, partial curve, poor fit].

**Q.** For `O=C(COc1ccc(Cl)cc1Cl)N/N=C/c1ccc(OC2OC(CO)C(O)C(O)C2O)cc1` (centres undefined), which Potency is on record?
**A.** Its Potency is “inactive”.

**Q.** `Cc1c(C#N)c(NC(=O)c2ccccc2)n(Cc2ccccc2)c1C` was tested. Which Potency did it give?
**A.** Its Potency is inconclusive [inhibitor, partial curve, poor fit].

**Q.** With `CCn1c(C)c(C)c2cc(C(=O)NCCc3cc(OC)ccc3OC)ccc21` as the compound, how does the Potency read?
**A.** The Potency was inconclusive [inhibitor, partial curve, poor fit].

**Q.** `CC(=O)N1N=C(c2ccccc2O)CC1c1cccs1` (centres undefined) was tested. Which Potency did it give?
**A.** The Potency was inconclusive [inhibitor, single point].

**Q.** `C=CCn1c(SCC(=O)NCC2CCCO2)nc2scc(-c3ccc(OC)cc3)c2c1=O` (centres undefined) was tested. Which Potency did it give?
**A.** The Potency was inconclusive [inhibitor, single point].

**Q.** For `CC(c1nnnn1C(C)(C)C)N(Cc1cccnc1)Cc1ccccc1Cl` (centres undefined), which Potency is on record?
**A.** Its Potency is “inactive”.

**Q.** How did the Potency turn out when `c1ccc(C(Nc2cccnc2)c2ccccc2)cc1` was run?
**A.** The Potency was inconclusive [inhibitor, partial curve, poor fit].

**Q.** How did the Potency turn out when `CCOc1ccc(C(=O)/C=C/c2ccc(OC)c(OC)c2)cc1` was run?
**A.** The Potency was inconclusive [inhibitor, single point].

**Q.** For `COc1ccc(/C=N/Nc2snc(SC)c2C#N)cc1OC`, which Potency is on record?
**A.** Its Potency is “inactive”.

**Q.** How did the Potency turn out when `CC(C)CNC(=O)c1cccc(NC(=O)CCc2ccccc2)c1` was run?
**A.** Its Potency is inconclusive [inhibitor, single point].

**Q.** How did the Potency turn out when `O=C1N[C@@H](Cc2ccccc2)COC(=O)[C@H](Cc2ccc(F)cc2)C/C=C\C[C@@H]1CC(=O)N(CCO)Cc1ccccc1` was run?
**A.** Its Potency is inconclusive [inhibitor, single point].

**Q.** `CCOC(=O)c1nnn(CC(=O)N2N=C(c3ccc(Cl)cc3)CC2c2ccc(OC)cc2)c1C(=O)OCC` (centres undefined) was tested. Which Potency did it give?
**A.** The Potency was “inactive”.

**Q.** How did the Potency turn out when `CC(=O)N1CCc2cc(NC(=O)C3(C)CCN3Cc3ccccc3Cl)ccc21` (centres undefined) was run?
**A.** The Potency was inconclusive [inhibitor, full curve, poor fit].

**Q.** For `CC1CCCC(NC(=O)CCC(=O)c2ccc(F)cc2)C1C` (centres undefined), which Potency is on record?
**A.** Its Potency is inconclusive [inhibitor, single point].

**Q.** `CCN(CC)CC(=O)Nc1cc(N(C)C)nc2ccccc12` was tested. Which Potency did it give?
**A.** The Potency was inconclusive [inhibitor, partial curve, poor fit].

**Q.** For `O=S1(=O)CCO[C@H]2Cc3ccccc3[C@H]2N1Cc1ccc(Cl)cc1`, which Potency is on record?
**A.** The Potency was inconclusive [inhibitor, single point].

**Q.** Which Potency does the source give for `COc1cc(C(c2c(NC(=O)c3ccco3)sc(C)c2C)N2CCOCC2)cc(OC)c1OC` (centres undefined) here?
**A.** The Potency was inconclusive [inhibitor, single point].

**Q.** Which Potency does the source give for `Cc1ccc2c(CC(=O)Nc3cccc(S(=O)(=O)N4CCOCC4)c3)coc2c1` here?
**A.** The Potency was inconclusive [inhibitor, partial curve, poor fit].

**Q.** Which Potency does the source give for `Cc1ccc(-c2c[n+](CC(=O)Nc3nc(-c4ccc(F)cc4)cs3)c3n2CCC3)cc1` here?
**A.** The Potency was inconclusive [inhibitor, single point].

**Q.** How did the Potency turn out when `Cc1[nH]c2ccccc2c1SCC(=O)N1CCCCCC1` was run?
**A.** The Potency was inconclusive [inhibitor, single point].

**Q.** Which Potency does the source give for `O=C(COC(=O)c1ccccc1C(=O)N1CCN(c2ccccc2)CC1)Nc1ccc(F)cc1` here?
**A.** Its Potency is inconclusive [inhibitor, partial curve, poor fit].

**Q.** Which Potency does the source give for `CC(C)Oc1cccc(C(=O)NC(=S)Nc2ccccc2)c1` here?
**A.** The Potency was inconclusive [inhibitor, single point].

**Q.** For `Cc1[nH]c2ccc(C(=O)NCCc3ccccc3Cl)cc2c1C`, which Potency is on record?
**A.** Its Potency is inconclusive [inhibitor, single point].

**Q.** How did the Potency turn out when `COc1cc(C(=O)NC(=S)N(C)Cc2ccccc2)cc(OC)c1OC` was run?
**A.** Its Potency is inconclusive [inhibitor, partial curve, poor fit].

**Q.** How did the Potency turn out when `Cc1nc2ccccc2c2oc(C(=O)NCCCN3CCC(C)CC3)cc12` was run?
**A.** The Potency was inconclusive [inhibitor, single point].

**Q.** Which Potency does the source give for `CCc1ccc(OCC(=O)Nc2ccc(Cl)c(-c3nc4cc(C)cc(C)c4o3)c2)cc1` here?
**A.** Its Potency is “inactive”.

**Q.** For `O=S(=O)(NC1CCCCC1N1CCN(c2ccccc2F)CC1)c1ccc(Cl)cc1` (centres undefined), which Potency is on record?
**A.** Its Potency is inconclusive [inhibitor, single point].

**Q.** Which Potency does the source give for `O=C(c1cc(F)ccc1F)C1CCCN(C(=O)c2ccc(F)cc2Cl)C1` (centres undefined) here?
**A.** The Potency was inconclusive [inhibitor, partial curve, poor fit].

**Q.** How did the Potency turn out when `CN(C)c1ccc(NC(=O)/C=C/c2ccccc2Cl)cc1` was run?
**A.** Its Potency is inconclusive [inhibitor, single point].

**Q.** Which Potency does the source give for `COc1ccc(CCC(C)N(C)Cc2ccccc2)cc1` (centres undefined) here?
**A.** Its Potency is inconclusive [inhibitor, full curve, poor fit].

**Q.** How did the Potency turn out when `Cc1onc(-c2ccccc2)c1NC(=O)Nc1ccc(OC(F)F)cc1` was run?
**A.** Its Potency is inconclusive [inhibitor, single point].

**Q.** `CC(CCc1ccccc1)NS(=O)(=O)c1ccccc1Cl` (centres undefined) was tested. Which Potency did it give?
**A.** The Potency was inconclusive [inhibitor, single point].

**Q.** Which Potency does the source give for `CCOc1cccc(C2c3c(oc4ccc(F)cc4c3=O)C(=O)N2CCOC)c1` (centres undefined) here?
**A.** Its Potency is “inactive”.

**Q.** `Cc1ccnc2nc(C(=O)OCC(=O)NC3CCCC(C)C3C)nn12` (centres undefined) was tested. Which Potency did it give?
**A.** Its Potency is inconclusive [inhibitor, full curve, poor fit].

**Q.** Which Potency does the source give for `COc1ccc(Cn2c(C)c(C)c(C#N)c2NC(=O)Nc2ccc(Cl)cc2)cc1` here?
**A.** The Potency was inconclusive [inhibitor, full curve, poor fit].

**Q.** With `C/[N+]([O-])=C\c1cccc(OCCN2CCN(c3ncc(C(F)(F)F)cc3Cl)CC2)c1` as the compound, how does the Potency read?
**A.** Its Potency is inconclusive [inhibitor, partial curve].

**Q.** With `O=C(c1cc(S(=O)(=O)N2CCN(c3ccccc3)CC2)ccc1Cl)N1CCCCCCC1` as the compound, how does the Potency read?
**A.** Its Potency is inconclusive [inhibitor, partial curve, poor fit].

**Q.** Which Potency does the source give for `C/C(=N/NS(=O)(=O)c1ccc(C)cc1)c1cccc(NC(=O)c2cccc(Cl)c2)c1` here?
**A.** The Potency was inconclusive [inhibitor, partial curve, poor fit].

**Q.** `Cc1cccc(COC[C@H](Cc2ccccc2)N2CCN(C(=O)c3cccc(Cl)c3)CCC2=O)c1` was tested. Which Potency did it give?
**A.** The Potency was inconclusive [inhibitor, partial curve, poor fit].

**Q.** How did the Potency turn out when `COC(=O)c1ccc(C)c(NS(=O)(=O)c2ccc(OC)c(OC)c2)c1` was run?
**A.** The Potency was “inactive”.

**Q.** How did the Potency turn out when `Cc1c(C)n(CC(O)CN2CCCCC2)c2ccccc12` (centres undefined) was run?
**A.** The Potency was inconclusive [inhibitor, single point].

**Q.** How did the Potency turn out when `O=C(Nc1ccc[n+](CC(=O)c2cccc3ccccc23)c1)c1ccccc1` was run?
**A.** Its Potency is inconclusive [inhibitor, partial curve, poor fit].

**Q.** Which Potency does the source give for `COc1cn(CC(=O)Nc2ccc(C)cc2C)c(CN2CCCCC2)cc1=O` here?
**A.** Its Potency is “inactive”.

**Q.** For `FC(F)(F)c1cccc(NC(=S)N(CCCN2CCCC2)Cc2cccn2Cc2ccc(Cl)cc2)c1`, which Potency is on record?
**A.** Its Potency is active: 6.31 µM.

**Q.** For `COCCn1c(-c2ccc(-c3ccccc3Cl)o2)nc2c1c(=O)[nH]c(=O)n2CC(C)C`, which Potency is on record?
**A.** The Potency was “inactive”.

**Q.** For `COc1ccc(CCn2c(C3CCCCC3)nc3c(c(=O)c4ccccc4n3C)c2=O)cc1`, which Potency is on record?
**A.** Its Potency is inconclusive [inhibitor, partial curve, poor fit].

**Q.** Which Potency does the source give for `CSCCC(NC(=O)c1ccccc1Br)C(=O)N1CCN(C/C=C/c2ccccc2)CC1` (centres undefined) here?
**A.** Its Potency is inconclusive [inhibitor, single point].

**Q.** How did the Potency turn out when `O=C(N/N=C/c1cccc(Oc2ccccc2)c1)c1ccccc1Br` was run?
**A.** Its Potency is inconclusive [inhibitor, single point].
